For the experiment, the target named is WDR5 (Homo sapiens, UniProt P61964). Put plainly: biochemical. Type of experiment: binding. The note with it: WDR5-His tag (Δ23, residues 24-334) 2 nM; 10mer-Thr-FAM probe 150 nM; Tb-anti-HIS 1 nM; 60 min, room temperature; read-out: Ki for Inhibition of WDR5 by TR-FRET assay.

SMILES strings stand for the structures. A value given as a limit tells only on which side of the number the result lay.

Turning to `CCn1cc(-c2cc(Cn3ccoc3=N)cc3c2CCN([C@@H](C)c2cc(OC)ccn2)C3=O)c(C(F)(F)F)n1` [Example 91, (S)-5-(1-Ethyl-3-(trifluoromethyl)-1H-pyrazol-4-yl)-7-((2-iminooxazol-3(2H)-yl)methyl)-2-(1-(4-methoxypyridin-2-yl)ethyl)-3,4-dihydroisoquinolin-1(2H)-one], the inhibition constant (Ki) was below 0.05 nM.

As to `Cn1cc(-c2cc(Cn3ccoc3=N)cc3c2CCN(Cc2cc(C4CC4)nn2C)C3=O)c(C(F)(F)F)n1` [Example 150, 2-((3-Cyclopropyl-1-methyl-1H-pyrazol-5-yl)methyl)-7-((2-iminooxazol-3(2H)-yl)methyl)-5-(1-methyl-3-(trifluoromethyl)-1H-pyrazol-4-yl)-3,4-dihydroisoquinolin-1(2H)-one], the Ki is below 0.05 nM.

On to `CCn1cc(-c2cc(Cc3ncc[nH]3)cc3c2CCN([C@@H](C)c2cc(OC)ccn2)C3=O)c(C(F)(F)F)n1` [Example 230, (S)-7-((1H-Imidazol-2-yl)methyl)-5-(1-ethyl-3-(trifluoromethyl)-1H-pyrazol-4-yl)-2-(1-(4-methoxypyridin-2-yl)ethyl)-3,4-dihydroisoquinolin-1(2H)-one], for which the inhibitory constant (Ki) is below 0.05 nM.

In the case of `Cc1ccc2[nH]ncc2c1-c1cc(CN2CCc3c(cc(Cn4ccnc4C)cc3-c3cn(C)nc3C(F)(F)F)C2=O)cc(OC(F)(F)F)c1` [Example 220, 7-((2-Methyl-1H-imidazol-1-yl)methyl)-2-(3-(5-methyl-1H-indazol-4-yl)-5-(trifluoromethoxy)benzyl)-5-(1-methyl-3-(trifluoromethyl)-1H-pyrazol-4-yl)-3,4-dihydroisoquinolin-1(2H)-one], the inhibitory constant (Ki) was determined as 0.13 nM.

In the case of `Cc1cc(CN2CCc3c(cc(Cn4ccnc4C)cc3-c3ccccc3)C2=O)ccc1Cl` [Example 5, 2-(4-Chloro-3-methylbenzyl)-7-((2-methyl-1H-imidazol-1-yl)methyl)-5-phenyl-3,4-dihydroisoquinolin-1(2H)-one], the Ki was 5.9 nM.

Take `CCn1cc(-c2cc(Cn3ccoc3=N)cc3c2CCN(Cc2cc(OC)ccn2)C3=O)c(C)n1` [Example 90, 5-(1-Ethyl-3-methyl-1H-pyrazol-4-yl)-7-((2-iminooxazol-3(2H)-yl)methyl)-2-((4-methoxypyridin-2-yl)methyl)-3,4-dihydroisoquinolin-1(2H)-one]: the Ki was below 0.05 nM.

Consider `CCn1cc(-c2cc(Cn3ccn(C)c3=N)cc3c2CCN(Cc2cc(OC)ccn2)C3=O)cn1` [Example 49, 5-(1-Ethyl-1H-pyrazol-4-yl)-7-((2-imino-3-methyl-2,3-dihydro-1H-imidazol-1-yl)methyl)-2-((4-methoxypyridin-2-yl)methyl)-3,4-dihydroisoquinolin-1(2H)-one], for which the Ki was found to be 1.1 nM.

For the compound `COc1cc(CN2CCc3c(cc(Cn4ccn(C)c4=N)cc3-c3c(C)noc3C)C2=O)cc(OC)c1` [Example 76, 2-(3,5-Dimethoxybenzyl)-5-(3,5-dimethylisoxazol-4-yl)-7-((2-imino-3-methyl-2,3-dihydro-1H-imidazol-1-yl)methyl)-3,4-dihydroisoquinolin-1(2H)-one], the Ki came to 0.16 nM.

As for `Cc1cc(CN2CCc3c(cc(Cn4ccnc4C)cc3-c3cn(C)nc3C(F)(F)F)C2=O)cnc1Cl` [Example 213, 2-((6-Chloro-5-methylpyridin-3-yl)methyl)-7-((2-methyl-1H-imidazol-1-yl)methyl)-5-(1-methyl-3-(trifluoromethyl)-1H-pyrazol-4-yl)-3,4-dihydroisoquinolin-1(2H)-one], the inhibition constant (Ki) was below 0.05 nM.

On to `Cc1cc([C@H](C)N2CCc3c(cc(Cn4ccnc4C)cc3-c3cn(C)nc3C)C2=O)ccc1F` [Example 146, (S)-5-(1,3-Dimethyl-1H-pyrazol-4-yl)-2-(1-(4-fluoro-3-methylphenyl)ethyl)-7-((2-methyl-1H-imidazol-1-yl)methyl)-3,4-dihydroisoquinolin-1(2H)-one], for which the inhibition constant (Ki) was below 0.05 nM.

Take `CCn1cc(-c2cc(Cn3ccnc3C)cc3c2CCN([C@H](c2cc(OC)ccn2)C2CC2)C3=O)c(C(F)(F)F)n1` [Example 206, (S)-2-(cyclopropyl(4-methoxypyridin-2-yl)methyl)-5-(1-ethyl-3-(trifluoromethyl)-1H-pyrazol-4-yl)-7-((2-methyl-1H-imidazol-1-yl)methyl)-3,4-dihydroisoquinolin-1(2H)-one]: the Ki was below 0.05 nM.

`CCn1cc(-c2cc(Cn3ccnc3C)cc3c2CCN([C@@H](C)c2cc(OC)ccn2)C3=O)c(C(F)(F)F)n1` [Example 156, (S)-5-(1-Ethyl-3-(trifluoromethyl)-1H-pyrazol-4-yl)-2-(1-(4-methoxypyridin-2-yl)ethyl)-7-((2-methyl-1H-imidazol-1-yl)methyl)-3,4-dihydroisoquinolin-1(2H)-one]: the inhibitory constant (Ki) is below 0.05 nM.

As to `Cc1cc([C@H](C)N2CCc3c(cc(CNc4cccc(=O)[nH]4)cc3-c3cn(C)nc3C(F)(F)F)C2=O)ccc1F` [Example 142, (S)-2-(1-(4-Fluoro-3-methylphenyl)ethyl)-5-(1-methyl-3-(trifluoromethyl)-1H-pyrazol-4-yl)-7-(((6-oxo-1,6-dihydropyridin-2-yl)amino)methyl)-3,4-dihydroisoquinolin-1(2H)-one], the inhibitory constant (Ki) amounted to 25 nM.

Turning to `CCn1cc(-c2cc(Cn3cnc(C)c3C)cc3c2CCN([C@@H](C)c2cc(OC)ccn2)C3=O)c(C(F)(F)F)n1` [Example 178, (S)-7-((4,5-Dimethyl-1H-imidazol-1-yl)methyl)-5-(1-ethyl-3-(trifluoromethyl)-1H-pyrazol-4-yl)-2-(1-(4-methoxypyridin-2-yl)ethyl)-3,4-dihydroisoquinolin-1(2H)-one], the Ki was below 0.05 nM.

With `COc1ccnc(CN2CCc3c(cc(Cn4ccnc4C4CC4)cc3-c3cn(C)nc3C(F)(F)F)C2=O)c1` [Example 11, 7-((2-Cyclopropyl-1H-imidazol-1-yl)methyl)-2-((4-methoxypyridin-2-yl)methyl)-5-(1-methyl-3-(trifluoromethyl)-1H-pyrazol-4-yl)-3,4-dihydroisoquinolin-1(2H)-one], the Ki is below 0.05 nM.

Consider `CCn1cc(-c2cc(Cn3ccnc3C)cc3c2CCN([C@H](c2cc(C)ccn2)C2CC2)C3=O)c(C(F)(F)F)n1` [Example 177, (S)-2-(Cyclopropyl(4-methylpyridin-2-yl)methyl)-5-(1-ethyl-3-(trifluoromethyl)-1H-pyrazol-4-yl)-7-((2-methyl-1H-imidazol-1-yl)methyl)-3,4-dihydroisoquinolin-1(2H)-one], for which the Ki was below 0.05 nM.

For the compound `Cc1cc([C@H](C)N2CCc3c(OCC4CC4)cc(Cn4ccnc4C4CC4)cc3C2=O)ccc1F` [Example 23, (S)-7-((2-Cyclopropyl-1H-imidazol-1-yl)methyl)-5-(cyclopropylmethoxy)-2-(1-(4-fluoro-3-methylphenyl)ethyl)-3,4-dihydroisoquinolin-1(2H)-one], the inhibition constant Ki amounted to 4.1 nM.

Turning to `COc1cc(CN2CCc3c(cc(CNC(=N)C4CC4)cc3-c3ccc(F)cc3C)C2=O)cc(OC)c1` [Example 118, N-((2-(3,5-Dimethoxybenzyl)-5-(4-fluoro-2-methylphenyl)-1-oxo-1,2,3,4-tetrahydroisoquinolin-7-yl)methyl)cyclopropanecarboximidamide], the Ki is 0.064 nM.

Source of the values: patent US11999716B2, “WDR5 inhibitors and modulators” (priority 2018, dated 2024).
